Out of some 360,000 compounds screened, about 11,000 (3.1%) were called active. This list was built around the results that the source calls inconclusive (neither active nor inactive); the mix of calls is not that of the screen. Calls come from the whole dose curve; as a rule, active = well fitted inhibition curve with a large enough effect; inconclusive = small, poorly fitted or top-dose-only effect; inactive = no such curve, though single readings can be large or run the other way. No potency is given beside an inconclusive call; the fits are too rough.
These molecules were tested against Schistosoma mansoni thioredoxin glutathione reductase (TGR) (UniProt Q962Y6) (assay: qHTS Assay for the Inhibitors of Schistosoma Mansoni Peroxiredoxins). Settings: purified TGR, DTNB reduction, TNB absorbance 405 nm; activity change, negative = inhibition: at 114 µM (top of the series) unless noted.
Outline: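 Kinetic colorimetric format: TGR-catalysed, NADPH-driven DTNB reduction monitored via TNB absorbance. Enzyme dispensed at 20 nM; compound exposure 15 min at room temperature before reaction start.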
In the case of CN(C)c1cc[n+](CC(=O)Nc2cc(C(F)(F)F)ccc2Cl)cc1, the Potency is reported as inconclusive [inhibitor, full curve, poor fit].
In the case of Cc1c(Cl)ccc2c1NC(=O)C21NC(CCC(N)=O)[C@H]2C(=O)N(c3ccc(Cl)cc3)C(=O)[C@H]21 (stereo partly drawn), the Potency is reported as active: 35.5 µM.
In the case of COC(CN(C(=O)CCl)C(C(=O)NC1CCCCC1)c1ccccc1C)OC (stereo not drawn), the Potency is reported as active: 7.08 µM.
For O=C(O)CCc1ccc(-c2ccc(Br)cc2)n1CC(=O)O, the Potency was inconclusive [inhibitor, partial curve].
With O=C(C1=C(O)C(=O)N(c2ncccn2)C1c1cccc(Cl)c1)c1ccco1 (stereo not drawn) the Potency was active: 44.7 µM.
In the case of O=C(Nc1ccc2ncccc2c1)c1ccccc1Br, the Potency is reported as inconclusive [inhibitor, single point].
With CCOC(=O)C1/C(=N\O)CC(C)(O)C(C(=O)OCC)C1c1ccc(N(C)C)cc1 (stereo not drawn) the Potency was active: 35.5 µM.
With Cc1[nH]c2ccccc2c1Cc1nnc(SCC(=O)NCc2ccco2)o1 the Potency was active: 15.8 µM.
O=C(CCc1ccccc1)NC(=S)Nc1cccc(C(=O)O)c1 was tested, and the Potency was inconclusive [inhibitor, partial curve].
With Cc1sc2ncnc(SCC(=O)NC(=O)NCc3ccco3)c2c1C the Potency was inconclusive [inhibitor, partial curve].
With Cc1nc2c(C(=O)NCc3cccs3)cnn2c(C)c1Cc1ccc(F)cc1 the Potency was inconclusive [inhibitor, single point].
In the case of O=[N+]([O-])c1cc([As](=O)(O)c2ccc(O)c([N+](=O)[O-])c2)ccc1O, the Potency is reported as active: 14.1 µM.
With Cn1c(C(=O)N2CCN(Cc3ccccc3)CC2)cc2c(=O)n(C)c3ccccc3c21 the Potency was inconclusive [inhibitor, full curve].
N/C(=N\OC(=O)c1ccc(=O)n(Cc2ccc(Cl)cc2)c1)c1ccccn1 was tested, and the Potency was “inactive”.
With CCC1CCCCN1C(=O)c1ccc(OC2CCN(C(=O)CCOC)CC2)cc1 (stereo not drawn) the Potency was inconclusive [inhibitor, single point].
With Cc1ccc(/C=C2\C(=O)NC(=S)N(c3ccccc3F)C2=O)s1 the Potency was active: 7.94 µM.
With Cc1cc(C)cc(N(C(=O)c2csnn2)C(C(=O)NC2CCCC2)c2cccnc2)c1 (stereo not drawn) the Potency was “inactive”.
With Cc1cc(C)c2oc(C(=O)N3CCN(Cc4ccccc4)CC3)cc(=O)c2c1 the Potency was inconclusive [inhibitor, partial curve].
With Cc1ccsc1-c1nc(CSCC(=O)NCc2ccc3c(c2)OCO3)c(C)o1 the Potency was inconclusive [inhibitor, partial curve, poor fit].
For CCOC(=O)Cc1nnc(NC(=O)COc2ccc(C)cc2)s1, the Potency was inconclusive [inhibitor, single point].
For O=C(Nc1ccc(Cl)c(C(F)(F)F)c1)c1ccncc1, the Potency was “inactive”.
In the case of Cc1ccc(C(=O)NCCN2C3=NC[C@H](C(C)C)N3C[C@H]2Cc2ccc(O)cc2)cc1Br, the Potency is reported as “inactive”.
For O=[N+]([O-])/C(C(Cl)=C(Cl)Cl)=C(\Nc1ccc(F)cc1)n1cncn1, the Potency was active: 8.91 µM.
For COc1cc(C2C3=C(Nc4nc(N)[nH]c(=O)c42)c2ccccc2C3=O)ccc1O (stereo not drawn), the Potency was inconclusive [inhibitor, partial curve].
Cc1ccc(NS(=O)(=O)c2ccc3c(c2)NC(=O)CCS3)c(C)c1 was tested, and the Potency was “inactive”.
For CCOC(=O)COc1ccc(C(c2c(C)[nH][nH]c2=O)c2c(C)[nH][nH]c2=O)cc1, the Potency was inconclusive [inhibitor, full curve, poor fit].
In the case of COc1cc2ncc(S(=O)(=O)c3ccccc3)c(N3CCC4(CC3)OCCO4)c2cc1OC, the Potency is reported as “inactive”.
With Cc1coc(=N)n1CC(=O)c1ccc(Cl)cc1 the Potency was active: 39.8 µM.
With O=C(CC1C(=O)NCCN1Cc1ccc(F)cc1)NCCOc1cccnc1 (stereo not drawn) the Potency was inconclusive [inhibitor, partial curve].
In the case of CN(C)CCCNC(=O)C1CCNCC1, the Potency is reported as inconclusive [inhibitor, partial curve].
With Cc1ccc(CNC(=O)Cn2ccn(-c3ccc(F)c(F)c3)c(=O)c2=O)cc1 the Potency was “inactive”.
With Cn1c(SCC(=O)c2ccccc2)nnc1-c1ccco1 the Potency was inconclusive [inhibitor, single point].
With CCOc1cc(C(=O)N(CC)CC(=O)Nc2c(F)cccc2F)ccc1OCC(=O)N1CCOCC1 the Potency was inconclusive [inhibitor, single point].
With CN(Cc1cccnc1)C(=O)CC1C(=O)NCCN1CC(c1ccccc1)c1ccccc1 (stereo not drawn) the Potency was inconclusive [inhibitor, single point].
COc1ccc(OC)c(C(=O)NC(CC(N)=O)c2ccc(NCc3ccc(F)c(F)c3)c([N+](=O)[O-])c2)c1 (stereo not drawn) was tested, and the Potency was “inactive”.
With C#CCOCCOCCOCCNc1nc(N2CCN(C(=O)CCCCCCCCCCNC(=O)[C@H](CO)n3cc(CCCCCN)nn3)CC2)nc(N2CCN(C(=O)CCCCCCCCCCNC(=O)[C@H](CCCN=C(N)N)n3cc(C[C@@H](C)CC)nn3)CC2)n1 the Potency was active: 44.7 µM.
In the case of COc1ccc(N(CC(=O)NCCSCc2ccc(C)cc2)S(=O)(=O)c2ccccc2)cc1, the Potency is reported as inconclusive [inhibitor, full curve, poor fit].
For COCCCNC(=O)C12CCC(C)(C(=O)C1)C2(C)C (stereo not drawn), the Potency was inconclusive [inhibitor, single point].
O=C(c1ccco1)N1CCN(C(=O)c2ccc(CS(=O)c3cccc(Cl)c3)o2)CC1 (stereo not drawn) was tested, and the Potency was inconclusive [inhibitor, single point].
COc1cccc(-c2nc(CSCC(=O)NCC3CCCO3)c(C)o2)c1 (stereo not drawn) was tested, and the activity change, negative = inhibition was inconclusive: -44.2% [inhibitor].
Cc1ccc(-c2c3c(=O)n(C)c(=O)n(C)c3c3c(C)nc4ccccc4n23)cc1 was tested, and the Potency was “inactive”.
In the case of O=C1C2=C(C(=O)c3ccccc31)C1O[C@](CCCCN3C(=O)c4ccccc4C3=O)(Cc3ccccc31)O2, the Potency is reported as inconclusive [inhibitor, partial curve].
FC(F)c1nc2ccccc2[nH]1 was tested, and the Potency was inconclusive [inhibitor, partial curve].

— PubChem BioAssay AID485364 (National Center for Advancing Translational Sciences (NCATS), 2010)
% is set by controls: 0 for no effect and ±100 for the full control effect; potency is the fitted concentration of half-maximal effect; tags give direction and shape of the fitted curve.
Note: nearly all actives have a fitted effect of over 60% in size.
